Measurements reported in the supplement of paper PMC11876631.
Residue numbers refer to the chain shown, from its start. Names and notes keep the numbering of the source. ± gives the standard deviation of the averaged measurements. Laboratory Escherichia coli strains with one amino-acid change in an essential protein, pooled on minimal glucose agar with carbenicillin or gentamicin at twice the control MIC (plus kanamycin and chloramphenicol for the plasmids), 48 h. Fold change of barcode share against drug-free plates; higher = less susceptible. Active = above 20 in both replicates (the paper's putatively resistant). '<' = one read or none on drug, '>' = one read or none on a drug-free plate. Shares are relative, so most strains fall below 1 when a few take over. Listed are strains with at least 15 reads on both drug-free plates, and hits; most hits rest on fewer reference reads. Replicate rank correlation about 0.5. Edits are read from barcodes.

B1: gltX V186A (protein)
chain: MKIKTRFAPSPTGYLHVGGARTALYSWLFARNHGGEFVLRIEDTDLERSTPEAIEAIMDGMNWLSLEWDEGPYYQTKRFDRYNAVIDQMLEEGTAYKCYCSKERLEALREEQMAKGEKPRYDGRCRHSHEHHADDEPCVVRFANPQEGSVVFDDQIRGPIEFSNQELDDLIIRRTDGSPTYNFCVAVDDWDMEITHVIRGEDHINNTPRQINILKALKAPVPVYAHVSMINGDDGKKLSKRHGAVSVMQYRDDGYLPEALLNYLVRLGWSHGDQEIFTREEMIKYFTLNAVSKSASAFNTDKLLWLNHHYINALPPEYVATHLQWHIEQENIDTRNGPQLADLVKLLGERCKTLKEMAQSCRYFYEDFAEFDADAAKKHLRPVARQPLEVVRDKLAAITDWTAENVHHAIQATADELEVGMGKVGMPLRVAVTGAGQSPALDVTVHAIGKTRSIERINKALDFIAERENQQ
B2: gltX V186Q (protein)
chain: B1 chain with A186Q
B3: gltX V186D (protein)
chain: B1 chain with A186D
B4: gltX V186P (protein)
chain: B1 chain with A186P
B5: gltX F183W (protein)
chain: B1 chain with F183W, A186V
B6: gltX L306P (protein)
chain: B1 chain with A186V, L306P
B7: gltX V185A (protein)
chain: B1 chain with V185A, A186V
B8: gmk L24W (protein)
chain: MAQGTLYIVSAPSGAGKSSLIQAWLKTQPLYDTQVSVSHTTRQPRPGEVHGEHYFFVNHDEFKEMISRDAFLEHAEVFGNYYGTSREAIEQVLATGVDVFLDIDWQGAQQIRQKMPHARSIFILPPSKIELDRRLRGRGQDSEEVIAKRMAQAVAEMSHYAEYDYLIVNDDFDTALTDLKTIIRAERLRMSRQKQRHDALISKLLAD
B9: gmk L179Q (protein)
chain: B8 chain with W24L, L179Q
B10: guaB M195Q (protein)
chain: MLRIAKEALTFDDVLLVPAHSTVLPNTADLSTQLTKTIRLNIPMLSAAMDTVTEARLAIALAQEGGIGFIHKNMSIERQAEEVRRVKKHESGVVTDPQTVLPTTTLREVKELTERNGFAGYPVVTEENELVGIITGRDVRFVTDLNQPVSVYMTPKERLVTVREGEAREVVLAKMHEKRVEKALVVDDEFHLIGQITVKDFQKAERKPNACKDEQGRLRVGAAVGAGAGNEERVDALVAAGVDVLLIDSSHGHSEGVLQRIRETRAKYPDLQIIGGNVATAAGARALAEAGCSAVKVGIGPGSICTTRIVTGVGVPQITAVADAVEALEGTGIPVIADGGIRFSGDIAKAIAAGASAVMVGSMLAGTEESPGEIELYQGRSYKSYRGMGSLGAMSKGSSDRYFQSDNAADKLVPEGIEGRVAYKGRLKEIIHQQMGGLRSCMGLTGCGTIDELRTKAEFVRISGAGIQESHVHDVTITKESPNYRLGS
B11: hemA I246Q (protein)
chain: MTLLALGINHKTAPVSLRERVSFSPDKLDQALDSLLAQPMVQGGVVLSTCNRTELYLSVEEQDNLQEALIRWLCDYHNLNEEDLRKSLYWHQDNDAVSHLMRVASGLDSLVLGEPQILGQVKKAFADSQKGHMKASELERMFQKSFSVAKRVRTETDIGASAVSVAFAACTLARQIFESLSTVTVLLVGAGETIELVARHLREHKVQKMIIANRTRERAQILADEVGAEVIALSDIDERLREADIQISSTASPLPIIGKGMVERALKSRRNQPMLLVDIAVPRDVEPEVGKLANAYLYSVDDLQSIISHNLAQRKAAAVEAETIVAQETSEFMAWLRAQSASETIREYRSQAEQVRDELTAKALAALEQGGDAQAIMQDLAWKLTNRLIHAPTKSLQQAARDGDNERLNILRDSLGLE
B12: hemA L276Q (protein)
chain: B11 chain with Q246I, L276Q

Biological target: Escherichia coli (laboratory strain)
Assay: barcode share on antibiotic plates over drug-free plates; higher = less susceptible
Details: antibiotic: gentamicin; 2× MIC (MIC 0.45 µg/mL)
Experimental: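 A pool of E. coli strains, each edited to carry one amino-acid change in an essential protein, was grown for 48 h on minimal glucose agar with or without antibiotic; strain barcodes were sequenced; mean of two replicates.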

| Protein | fold change of barcode share |
| --- | --- |
| B1 | 0.00937 ± 0.011 |
| B2 | < 0.0036 |
| B3 | < 0.00595 |
| B4 | 0.008 ± 0.0042 |
| B5 | 0.00432 ± 0.0012 |
| B6 | < 0.0196 |
| B7 | 0.0716 ± 0.097 |
| B8 | 0.0215 ± 0.01 |
| B9 | < 0.0219 |
| B10 | < 0.0171 |
| B11 | 1300 [active] |
| B12 | 2140 [active] |
